Data on 167 variants can be found in the RNAGym collection of RNA variant scans (doi:10.7554/elife.90254).

The source gives no read counts; variants with many changes may rest on few reads.

To fix the notation:
B1: LINE1-full (parent)
chain: UACGUAGGUGGUUUUCCCCUGAUAGUGCUAAGGGGGCCUGGAAGUUUGGACUGGGCAGAGCUCAACACAGCGUGGCAAAGUGGCUGUGGCUAGACUGCCUCUCUGGAUUCCUCGUCACUCAGCAGGGCAUCUCUGAGAGAAAUGCC

The variants in the series derive from B1. Briefly: self-cleavage, relative activity (ratio to wild type); higher = more cleavage; in vitro, sequencing; the parent is a self-cleaving ribozyme.
With U26A U62C G74A A129G, the self-cleavage came out at 0.03.
The figure for U9C U13C A67G is 0.42.
A59G U109A A141G: the self-cleavage worked out at 0.
The result for U9C U13C U14C reads 0.92; that for A6G C103A U112A A117U, 0.67.
The figure for A42G U45C A69G U115A is 0.
The result for C71U A117U U143C reads 1.25.
For U85G U109C U119C U134A, the self-cleavage came to 1.
The figure for G10A A50G A107G is 1.53; for G7U U73C U115A U119A it is 2.3.
The result for U13C U104A A124G C133U reads 0.2.
The result for U81C A121C A129G reads 0.
In the case of U73C U102C U132C, the self-cleavage stood at 1.84.
The result for U45A A77G A78G reads 1.59.
The figure for U14C U29C U62G is 0; for U20C A107G A117U U134C it is 1.77; for U20G U46A A69U it is 0.03.
The figure for G7A U26A U87C A107G is 0.16; for C37G A42U A107G it is 1.21; for A22U A65G U134C it is 0.26.
For U14C U45C A64G U143A, the self-cleavage came out at 0.
Consider U1A U15C U62A, for which the self-cleavage was determined as 0.12.
Take U39C U52A A67G A78G A136U: the self-cleavage is 0.
The result for U29C A43G A77U G88A A121U reads 0.06.
With G4U A30G A64G, the self-cleavage came to 0.5.
The figure for C38A A43G A65G U130A A140G is 0.07; for U96C A138G A140U it is 0.24; for C19A A59G U62A A69U U81C it is 0.
For the variant U15C G33U A67G C128U, the self-cleavage was 0.69.
The figure for U26C U39C U47C A69U is 0; for G32A U102C A124G G126A it is 1.59.
The figure for G75C U119A A136G is 0.65; for C63U A94G U100C A140G it is 0.03; for U5A U115C A136U it is 0.77.
The result for G4A A64U A117U U130C U132C A140G reads 0.54; that for A94U U115C C123U C128A A129G G144A, 0.51.
U5C U23C U46G: the self-cleavage worked out at 0.
The figure for U47A A64U A129G is 0.45.
The result for U47A C61U U108C reads 0.05.
The result for U1C A2G U14C A117G A121G A140G reads 1.15.
U12C A57G A142G: the self-cleavage came to 1.5.
The result for U15C A42G G114A reads 1.59; that for U47A A138G A141G, 1.4; that for A42G A78G A117U A141U, 2.53.
The figure for G54A A64G U87C A138G is 0.22.
The result for A24U U39C U91G U143A reads 0.
For A6C U20A U29C G114A, the self-cleavage turned out to be 1.08.
As to U12A G55U A117C, the self-cleavage turned out to be 0.51.
For G53C A78G U81C, the self-cleavage is 1.13.
For U15A C17U U132C, the self-cleavage was found to be 1.24.
The figure for A43G A77U A94G A140G is 0.21.
The figure for A57G U104C A138G is 1.35.
In the case of U9C A50G A121U A124U A141G, the self-cleavage stood at 0.96.
The result for U15C U47A A136U reads 1.61; that for G35A U62C U119C, 0.1.
Consider A6G U20C U96A U102C, for which the self-cleavage stood at 0.2.
The result for G7U A43G A138G reads 1.16.
In the case of U1A A2G U14C C37G U104C A138G, the self-cleavage worked out at 1.31.
The result for U13C U39A U115A reads 1.63; that for A6G A22G U109C U130C, 0; that for A69G G135A U143A, 0.34.
The result for U9G U52A A94U reads 0.31; that for U46C U104C U108C, 1.15.
With U15A A57G U91C C111U U134C U143A, the self-cleavage came to 1.58.
The result for U46C A65G A79G A138G reads 0; that for G35A A69U U115C, 0.05; that for U12C A57G A77U A142U, 0.48.
The result for U9C U15C U20A reads 1.42; that for U39C A79G C145A, 0.98.
The result for U12C U46C A141G reads 2.16; that for A43G U132C U134A, 0.65.
For the variant U15A C17G U46A A124G, the self-cleavage was 0.39.
Turning to U13C U26C A121U, the self-cleavage worked out at 1.12.
The figure for G21A G35A A67G is 0.19; for U9C U12C U100A it is 0.4; for A57G U73C A129G A142G it is 0.
The result for G8A U9C A43G U85A C131A reads 0.33.
The result for U1C U39C A50G reads 1.64; that for G53U U87A A117U, 0.12; that for U73A A92U A140U, 1.01.
For the variant U15C U52C A64U A67G U102A U130C A136U A138G, the self-cleavage came to 1.31.
For G36U A94G A121G G135A A136U, the self-cleavage stood at 0.12.
The figure for U9C C68U A94G is 0.12; for U12C U39C A43G A67C A77U U85A it is 0.42.
In the case of U9G A59G U134A U143C, the self-cleavage came to 0.18.
Regarding U15A U20C U73A G105A C118U U119G, the self-cleavage was 1.59.
The figure for A6G U87C A92U A142G is 0; for U1G C18A A43G A142G it is 1.24; for C3U A22G U62C A64G it is 0.18.
The figure for A64U A129G A140G is 0.5.
The figure for G10A A59G C111U A138G is 0.11; for U9A U26C U62C it is 0.29; for A42G U45C U46C it is 2.12.
Consider U85C A129G C146U, for which the self-cleavage stood at 0.
As to A6U G32A A69U, the self-cleavage was found to be 0.08.
The figure for U13C U119C A136G is 0; for U23C A43U U132C it is 2.01; for U13C A22C A64G it is 0.
The result for U20A A42U A67G U87A reads 0.03.
The result for U46A U47C U73A reads 1.25; that for U45C A77C G88A C95U U119C, 0.01.
As to U1A A2G U134C A141G, the self-cleavage came out at 2.7.
The result for U1C A6G G114A reads 0.87; that for A57G A64G A79G U87A A141G, 0.
The figure for U47A U109C A124G is 0.73; for A43G U62C A77U it is 0.1.
For the variant A22G G40U A124U, the self-cleavage was 0.85.
The result for G32A A64G U109A reads 0.15; that for U112A A129U U130C, 2.55; that for A43G A94G U109A A136U, 0.15.
The result for U91A U100C A141U reads 0.87.
The figure for U13A U20C C84U G86A A94G A138G is 0.03; for A78C U87A A94G U100C it is 0; for A42G A57U U132C it is 0.15.
Turning to A6U U45C G89A U91C G93U A129G A140G A142G, the self-cleavage is 0.
The result for U5C C17G U62C U119C reads 0.8.
The figure for U15C U45C A121U A136G G144C is 1.47; for A79G U104C A141U it is 2.3; for U23C A57G A129G U134C it is 0.92.
The result for A92G A117U U130A A138G reads 0; that for A121C A129U A141G, 1.15; that for A94G U115C U143G, 0.15.
As for C19U C37A A124G, the self-cleavage was found to be 0.65.
In the case of A6G A42G A65G A92G C118U, the self-cleavage came to 0.
The result for U1C C56A U108C reads 0.05.
The figure for U15A U46C A141G is 1.15.
The result for U12C U47A A140U reads 1.31.
On to U12C U46C U47C U85A U104C U108C, for which the self-cleavage worked out at 1.84.
Turning to U9C A57U G72A U73A U109C A142G, the self-cleavage stood at 0.08.
For the variant A22G A138G A142G, the self-cleavage turned out to be 1.57.
The result for U15C G55A A79G A138G reads 0.27; that for U13C U112C A141G, 1.32.
Consider A92U A94G C120A, for which the self-cleavage turned out to be 0.18.
The figure for A24G U47A C71U A140G is 0.45.
In the case of U13C A67G G89A, the self-cleavage amounted to 0.07.
Consider U52A A65G A117G, for which the self-cleavage was determined as 0.
The result for U20C A31G C51A C63U U132A reads 0.53.
As to A24G A64G U96C A107G A124U, the self-cleavage was determined as 0.
With U29C G36C U102C A107G, the self-cleavage was found to be 1.79.
The figure for U9G U62C A79G U134A is 0.1; for U13G U29A C90A A136G it is 0.02; for U1C G7A U47C G106C A121U A140G it is 2.37.
The result for A6U U52G A107G reads 0; that for A57U A79U U104C, 0.24; that for A77C A79U U108C, 0.42.
The result for U9C U15C G34U A78U A117G reads 2.53; that for U14A A64G A107U U115C, 0.18; that for U20C A77G A141G, 2.24.
For the variant U1A A117U G127U A140G, the self-cleavage amounted to 1.2.
In the case of U9A U20C U115C A124U, the self-cleavage is 1.19.
On to G36A U39A U85G A124G U132C, for which the self-cleavage was 0.02.
The result for U5C A42G A124G A138G reads 0.88.
Take A2G U9A U52C: the self-cleavage was determined as 0.28.
The result for A6G A79G U134C reads 1.08; that for A6G A65G C101U, 0.29; that for U1C C84A A94U, 0.12.
The result for U14C U96A A124G A140G reads 0; that for C18A U85A C128U A142G, 0.05.
The result for G7U U102C A129G reads 1.18; that for A67G U109C C113U, 0.41.
In the case of A6G U23C G27A U102C, the self-cleavage came out at 1.31.
The figure for U13C G27C A78U U100A A142G is 1.55.
U45A U52A A92G A140G A141G: the self-cleavage was 0.08.
Take U45C G55A A59G U115A: the self-cleavage is 0.08.
With U15C A24G A42U, the self-cleavage was 0.46.
The result for U13C U119C A129U U143A reads 2.47; that for G36A A65U U108C, 0.24.
